About 2,500 (3.4%) of roughly 73,000 compounds were called active. Inconclusive means that the source gave no clear call. Such entries were picked first, then a sample of the others. Calls follow the shape of the dose curve; as a rule, active = well fitted inhibition curve with a large enough effect; inconclusive = small, poorly fitted or top-dose-only effect; inactive = no such curve, though single readings can be large or run the other way. A potency beside an inconclusive call is a rough fit, not a confirmed value.
molecular target: 3-hydroxyacyl-CoA dehydrogenase type-2 (Homo sapiens) (UniProt Q99714); experiment: qHTS Assay for Inhibitors of HADH2 (Hydroxyacyl-Coenzyme A Dehydrogenase, Type II); conditions: recombinant HADH2, NADH fluorescence, beta-hydroxybutyryl-CoA; activity change, negative = inhibition: at 57.1 µM (top of the series); also: nearly all actives have a fitted effect of over 60% in size
Procedure, shortened: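 NADH fluorescence (ex 360/em 450 nm) read every 30 s for 4 min; activity taken as last-minus-first time point difference. Enzyme 20 nM, NAD+ 1 mM, beta-hydroxybutyryl-CoA 90 uM, pH 9.0 Tris buffer.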
% is scaled to controls: 0 for no effect and ±100 for the full control effect; potency is read from the fitted curve at half-maximal effect; tags tell the direction and shape of the fitted curve.

UniProt Q99714, sequence (Q99714 whole entry, looked up): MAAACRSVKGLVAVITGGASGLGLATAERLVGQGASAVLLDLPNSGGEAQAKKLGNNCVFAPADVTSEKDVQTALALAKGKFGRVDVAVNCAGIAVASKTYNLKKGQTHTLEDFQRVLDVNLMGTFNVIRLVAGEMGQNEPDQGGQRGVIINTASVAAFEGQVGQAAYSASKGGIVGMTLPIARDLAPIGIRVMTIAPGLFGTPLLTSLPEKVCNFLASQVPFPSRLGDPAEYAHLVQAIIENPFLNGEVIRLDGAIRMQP
UniProt Q99714, sequence (Q99714 whole entry, looked up): as above

SMILES	Potency	activity change, negative = inhibition
CN(C)C(=O)c1ccc(-c2cc(NCc3ccccc3)ncn2)cc1	inconclusive: 31.6 µM [inhibitor, single point]	–
CCOC(=O)c1cc2c(=O)n3ccccc3nc2n(CCCOC)c1=NC(=O)C(C)(C)C	inconclusive: 39.8 µM [inhibitor, single point]	–
Cc1cc(=O)n2[nH]c(C)c(-c3ccc(Cl)cc3)c2n1	inconclusive: 6.31 µM [inhibitor, single point]	–
Cc1cccc(Nc2ccncc2S(=O)(=O)NC(=O)NC(C)C)c1	inactive	–
COc1ccccc1-c1cncnc1NCc1cccnc1	inconclusive: 20 µM [inhibitor, partial curve]	–
Cn1c(SCC(=O)Nc2sc3c(c2C#N)CCC3)nnc1C1COc2ccccc2O1 (configuration not stated)	inconclusive: 39.8 µM [inhibitor, single point]	–
CCn1c(CSc2nc3ccccc3s2)nc2ccccc21	inconclusive: 3.98 µM [inhibitor, single point]	–
CC(C)n1c(SCC(N)=O)nc2c1c(=O)[nH]c(=O)n2C	inconclusive: 31.6 µM [inhibitor, single point]	–
COc1cc(C(=O)N(Cc2cc3cc(C)ccc3[nH]c2=O)CC2CCCO2)cc(OC)c1OC (configuration not stated)	inactive	–
CSc1nc(N2CCN(CCO)CC2)c2sc3nc(-c4ccco4)c4c(c3c2n1)CCC4	active: 25.1 µM	–
CCN(CC)S(=O)(=O)c1ccc2oc(C(=O)N3CCCCCC3)c(C)c2c1	inactive	–
CNc1nc(-c2ccc(N(C)C)cc2)nc2ccccc12	inconclusive: 12.6 µM [inhibitor, partial curve]	–
Cc1cc(C(=O)NCc2ccco2)cs1	inactive	–
CCOC(=O)c1[nH]cnc1C(=O)Nc1ccccn1	inactive	–
CC(=C1C(=O)c2ccccc2C1=O)N1CCN(Cc2ccccc2)CC1	inconclusive: 6.31 µM [inhibitor, partial curve]	–
Cc1ccc(NC(=O)Cn2cccc2)cc1C	inactive	–
Cc1nc(SCC(=O)c2ccccc2)n[nH]1	inconclusive: 31.6 µM [inhibitor, single point]	–
O=C1Nc2ccc(I)cc2/C1=C/c1cc(Br)c(O)c(Br)c1	active: 12.6 µM	–
CCc1cc2c(CN3CCN(C)CC3)cc(=O)oc2cc1O	active: 31.6 µM	–
Cc1nc2ccccc2c2oc(C(=O)NCC3COc4ccccc4O3)cc12 (configuration not stated)	inconclusive: 39.8 µM [inhibitor, single point]	–
CN(C)CCNc1c2c(c(C#N)c3nc4ccccc4n13)CCCC2	inactive	–
Cn1c(=S)c2[nH]c(SCCCc3ccccc3)nc2n(C)c1=O	–	inactive: 7.85% [at 11.4 µM]

Source: PubChem BioAssay AID886 (National Center for Advancing Translational Sciences (NCATS), 2007)
